The text below walks through data of paper PMC6919601, “Identification of Plasmodium dipeptidyl aminopeptidase allosteric inhibitors by high throughput screening” (PLoS ONE, 2019).

Each structure is given as a SMILES string. Among all 110,000 compounds or so, about 230 (0.21%) showed an effect of 50% or more. The list shows a part of the results.
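Also: 30 min substrate incubation versus DMSO and 10 µM JCP410 controls.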

DPAP1, sequence (Q8IIJ9 whole entry, looked up): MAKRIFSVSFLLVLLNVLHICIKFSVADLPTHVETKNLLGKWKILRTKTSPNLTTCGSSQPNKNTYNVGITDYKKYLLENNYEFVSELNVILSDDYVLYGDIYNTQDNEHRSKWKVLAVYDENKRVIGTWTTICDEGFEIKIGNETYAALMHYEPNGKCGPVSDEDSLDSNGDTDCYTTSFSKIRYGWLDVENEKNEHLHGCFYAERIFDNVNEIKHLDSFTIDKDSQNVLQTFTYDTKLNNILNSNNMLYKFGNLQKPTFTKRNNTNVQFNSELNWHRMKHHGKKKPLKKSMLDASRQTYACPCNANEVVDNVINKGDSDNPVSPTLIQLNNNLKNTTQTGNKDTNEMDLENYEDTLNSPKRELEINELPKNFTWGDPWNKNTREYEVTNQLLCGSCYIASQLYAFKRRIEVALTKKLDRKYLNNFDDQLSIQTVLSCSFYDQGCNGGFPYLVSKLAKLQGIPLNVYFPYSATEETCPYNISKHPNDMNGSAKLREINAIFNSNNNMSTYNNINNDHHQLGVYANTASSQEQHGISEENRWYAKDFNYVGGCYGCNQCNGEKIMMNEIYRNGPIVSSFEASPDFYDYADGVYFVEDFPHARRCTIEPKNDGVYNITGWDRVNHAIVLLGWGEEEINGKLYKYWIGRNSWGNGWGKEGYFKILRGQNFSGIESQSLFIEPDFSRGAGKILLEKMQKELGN

The assay has as its target DPAP1 (Plasmodium falciparum, UniProt Q8IIJ9). Kind of assay: primary screen, percent inhibition; read by cleavage of a fluorogenic dipeptide substrate; higher = more effect of the substance. More on the design: species or system P. falciparum D10 trophozoite lysates; single well.
Turning to `CN1CCN(C(=O)c2cc(=O)c3cc(Cl)ccc3o2)CC1`, the “% Inhibition @ 10 uM” value was determined as 0.248%.

With `S=C(CN1CCCC1=S)N1CCOCC1`, the “% Inhibition @ 10 uM” value came to 2.91%.

With `O=C(O)c1nc2nc(-c3cccs3)cc(C(F)(F)F)n2n1`, the “% Inhibition @ 10 uM” value is listed as 0.345%.

On to `COc1ccc(C=O)c(O)c1`, for which the “% Inhibition @ 10 uM” value is -1.08%.

In the case of `Cc1cc(Oc2nc3ccccn3c(=O)c2/C=C(\C#N)C(=O)NCc2ccccc2)ccc1Cl`, the “% Inhibition @ 10 uM” value is given as 0.189%.

With `c1ccc(-c2ccc(CN3CCN(Cc4ccc5c(c4)OCO5)CC3)cc2)cc1`, the “% Inhibition @ 10 uM” value is given as -1.07%.

Consider `CCO/C(O)=C1\C(C)=NC2=C(C(=O)CCC2)C1c1cccc(Cl)c1` (stereo not shown), for which the “% Inhibition @ 10 uM” value is reported as -0.233%.

On to `C=CCNC(=O)C1CC(c2ccc(F)cc2)=NO1` (stereo not shown), for which the “% Inhibition @ 10 uM” value is on record as -0.644%.

For the compound `CCCCNC(=O)c1ccc(C2SCC(=O)N2CCc2ccccc2)cc1` (stereo not shown), the “% Inhibition @ 10 uM” value was -4.15%.

As to `O=C(c1ccco1)N1CCN(Cc2ccco2)CC1`, the “% Inhibition @ 10 uM” value came to 2.16%.

Consider `N#Cc1cccc(NC(=O)COc2ccc(Br)cc2Cl)c1`, for which the “% Inhibition @ 10 uM” value is -5.03%.

`O=S(=O)(c1ccc2c(c1)OCCO2)N1CCC(Oc2ccc(-n3cnnn3)cc2)CC1`: the “% Inhibition @ 10 uM” value is reported as 3.88%.

On to `COc1ccc(CNC(=O)C2CCN(C3=NS(=O)(=O)C(c4ccc(C)c(C)c4)=C3C)CC2)cc1`, for which the “% Inhibition @ 10 uM” value worked out at 1.72%.

With `COc1ccc(-c2c(Cc3ccccc3)nn3c(O)cc(Cc4ccccc4)nc23)cc1`, the “% Inhibition @ 10 uM” value is -0.158%.

For `NC(=O)C1CCN(C(=O)C2CCN(c3ncnc4c3nc3n4CCCCC3)CC2)CC1`, the “% Inhibition @ 10 uM” value amounted to 3.27%.

As to `COc1ccc(S(=O)(=O)Nc2cnn(Cc3ccc(Cl)c(Cl)c3)c2)cc1`, the “% Inhibition @ 10 uM” value is listed as -5.88%.

In the case of `NC(=O)c1c(NC(=O)C2CCCO2)sc2c1CCCCCC2` (stereo not shown), the “% Inhibition @ 10 uM” value turned out to be 35.5%.

In the case of `O=C(NC12CC3CC(CC(C3)C1)C2)N1CCC(Cc2ccccc2)CC1`, the “% Inhibition @ 10 uM” value amounted to 3.53%.

Turning to `Clc1cccc(OCCN2CCCC2)c1Cl`, the “% Inhibition @ 10 uM” value worked out at 3.76%.

Consider `Cc1nc(O)c2c3c(sc2n1)CCC3`, for which the “% Inhibition @ 10 uM” value was 0.00784%.

As for `O=C(O)c1ccc(OCCNS(=O)(=O)c2cc(Cl)ccc2OCC(=O)N2CCOCC2)cc1`, the “% Inhibition @ 10 uM” value was -0.631%.

For the compound `CCC(C(=O)Nc1cccc(C(C)=O)c1)c1ccccc1` (stereo not shown), the “% Inhibition @ 10 uM” value is recorded as -0.641%.

With `Cc1ccc(OCC(=O)Nc2ccc(S(=O)(=O)N3CCCC3)cc2)cc1`, the “% Inhibition @ 10 uM” value is -0.992%.

Regarding `COCCCNC(=O)c1ccc2nc(N3CCCCC3)sc2c1`, the “% Inhibition @ 10 uM” value is -4.15%.

Turning to `Cc1cc2nc(C[n+]3cccc(C(N)=O)c3)[nH]c2cc1C`, the “% Inhibition @ 10 uM” value worked out at 0.722%.

On to `Cc1ccc(-c2noc(CCCC(=O)N3CCCCC3)n2)cc1`, for which the “% Inhibition @ 10 uM” value was -1.15%.

With `COc1ccc(C(=O)O)cc1S(=O)(=O)N1CCC(C)CC1`, the “% Inhibition @ 10 uM” value is reported as 3.04%.

Turning to `CCc1ccccc1NC(=O)CCCOc1ccccc1OC`, the “% Inhibition @ 10 uM” value worked out at 1.39%.
